Data published in the supplement of paper PMC9446081.
In all, about 39,000 compounds went through this assay and about 220 (0.56%) showed activity. Some of the results follow.

Each compound was assayed on Escherichia coli K-12 BW25113 (assay: relative growth (OD600 normalised to plate interquartile mean) (fraction); higher = less growth inhibition, active = 0.2 or less). Settings: 50 µM; LB; incubation time: overnight (16-24 h).
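Also: static incubation at 37 °C against the wild-type strain, values averaged over two biological replicates.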

How did the relative growth turn out when C[C@H](CO)N1C[C@H](C)[C@@H](CN(C)S(=O)(=O)c2ccc(Cl)cc2)Oc2ccc(NC(=O)CCCN(C)C)cc2C1=O was run?
Its relative growth is inactive: 1.

How did the relative growth turn out when Cc1ccc(S(=O)(=O)N[C@H]2CC[C@H](CC(=O)NCc3ccc(Cl)c(Cl)c3)O[C@@H]2CO)cc1 was run?
Its relative growth is inactive: 0.817.

With Cc1noc(C)c1S(=O)(=O)N(C)C[C@@H]1Oc2ccc(N(C)C)cc2CC(=O)N([C@H](C)CO)C[C@H]1C as the compound, how does the relative growth read?
The relative growth was inactive: 0.993.

For Cc1noc(C)c1NC(=O)Nc1ccc2c(c1)CC(=O)N([C@@H](C)CO)C[C@@H](C)[C@@H](CN(C)S(C)(=O)=O)O2, which relative growth is on record?
Its relative growth is inactive: 0.963.

Cc1noc(C)c1NC(=O)N(C)C[C@H]1Oc2ccc(NS(=O)(=O)c3c(C)noc3C)cc2CC(=O)N([C@H](C)CO)C[C@@H]1C was tested. Which relative growth did it give?
Its relative growth is inactive: 1.01.

C[C@@H]1CN([C@@H](C)CO)C(=O)c2cc(NC(=O)CCC(F)(F)F)ccc2O[C@@H](C)CCCCO[C@H]1CN(C)C(=O)Cc1ccccc1 was tested. Which relative growth did it give?
The relative growth was inactive: 1.02.

For C[C@@H]1CN([C@H](C)CO)C(=O)c2cc(NC(=O)Cc3ccccc3)ccc2O[C@@H](C)CCCCO[C@@H]1CN(C)C(=O)NC1CCCCC1, which relative growth is on record?
Its relative growth is inactive: 1.

C[C@@H]1CN([C@@H](C)CO)C(=O)c2cc(C#CC3(O)CCCC3)cnc2O[C@H]1CN(C)S(=O)(=O)c1ccc(F)cc1 was tested. Which relative growth did it give?
Its relative growth is inactive: 0.998.

How did the relative growth turn out when C[C@H](CO)N1C[C@H](C)[C@@H](CN(C)Cc2ccc(C(=O)Nc3ccccc3N)cc2)Oc2c(NS(=O)(=O)c3cn(C)cn3)cccc2C1=O was run?
Its relative growth is inactive: 0.994.

For C[C@@H]1CN([C@H](C)CO)C(=O)Cc2cc(NC(=O)C3CC3)ccc2O[C@@H]1CN(C)S(=O)(=O)c1ccc(F)cc1, which relative growth is on record?
Its relative growth is inactive: 0.964.

With C[C@@H]1CN([C@H](C)CO)C(=O)Cc2cc(NC(=O)Nc3ccc(C(F)(F)F)cc3)ccc2O[C@H]1CN(C)Cc1ccccc1 as the compound, how does the relative growth read?
Its relative growth is inactive: 0.983.

With O=C(C[C@@H]1C[C@H]2c3cc(NC(=O)C4CCOCC4)ccc3O[C@H]2[C@@H](CO)O1)NCCN1CCCCC1 as the compound, how does the relative growth read?
The relative growth was inactive: 0.915.

Which relative growth does the source give for Cc1nnsc1C(=O)NCC1(O)CCCC1 here?
The relative growth was inactive: 0.998.

For Cc1noc(C)c1NC(=O)N(C)C[C@H]1OCCCC[C@H](C)Oc2ccc(NC(=O)c3ccccc3)cc2C(=O)N([C@H](C)CO)C[C@@H]1C, which relative growth is on record?
The relative growth was inactive: 0.998.

How did the relative growth turn out when C[C@H]1CN([C@@H](C)CO)C(=O)c2cc(NC(=O)Nc3ccc4c(c3)OCO4)ccc2O[C@@H]1CN(C)C(=O)Nc1ccc(C(F)(F)F)cc1 was run?
Its relative growth is inactive: 0.99.

C[C@@H]1CN([C@@H](C)CO)C(=O)c2cc(NC(=O)Nc3ccc(F)cc3)ccc2O[C@@H](C)CCCCO[C@@H]1CN(C)C(=O)NC1CCCCC1 was tested. Which relative growth did it give?
Its relative growth is inactive: 0.988.

For C[C@@H]1CCCCO[C@@H](CN(C)Cc2ccncc2)[C@H](C)CN([C@H](C)CO)C(=O)c2cc(NC(=O)Nc3cccc4ccccc34)ccc2O1, which relative growth is on record?
The relative growth was inactive: 1.02.

How did the relative growth turn out when CC(C)(C)OC(=O)Cn1ccc(=O)[nH]c1=O was run?
Its relative growth is inactive: 1.03.

For COCC(=O)Nc1ccc2c(c1)OC[C@H](C)N(C(=O)Cc1ccccn1)C[C@H](C)[C@H](OC)CN(C)C2=O, which relative growth is on record?
Its relative growth is inactive: 0.995.

COc1cccc(NC(=O)C[C@@H]2CC[C@H]3[C@@H](COc4ccc(NC(=O)C5CCOCC5)cc4C(=O)N3C)O2)c1 was tested. Which relative growth did it give?
The relative growth was inactive: 1.01.

How did the relative growth turn out when C[C@@H]1CN([C@H](C)CO)C(=O)c2c(c3ccccc3n2C)-c2ccccc2CO[C@H]1CN(C)Cc1ccc(C(=O)O)cc1 was run?
The relative growth was inactive: 0.98.

Which relative growth does the source give for COC(=O)[C@@H](N)Cc1ccc(-n2cc(CCC(=O)NO)nn2)cc1 here?
The relative growth was inactive: 0.782.

With CO[C@@H]1CN(C)C(=O)c2cc(NS(C)(=O)=O)ccc2OC[C@H](C)N(C(=O)c2ccc3c(c2)OCO3)C[C@@H]1C as the compound, how does the relative growth read?
The relative growth was inactive: 1.01.

C[C@@H]1CCCCO[C@@H](CN(C)C(=O)Nc2ccc(C(F)(F)F)cc2)[C@H](C)CN([C@@H](C)CO)C(=O)c2cc(NS(=O)(=O)c3ccc(F)cc3)ccc2O1 was tested. Which relative growth did it give?
The relative growth was inactive: 1.01.

Which relative growth does the source give for CC(C)NC(=O)Nc1ccc2c(c1)CC(=O)N([C@H](C)CO)C[C@H](C)[C@H](CN(C)Cc1ccc3c(c1)OCO3)O2 here?
The relative growth was inactive: 1.01.

Which relative growth does the source give for C[C@@H]1CCCCO[C@H](CN(C)C(=O)NC2CCCCC2)[C@H](C)CN([C@@H](C)CO)C(=O)c2cc(NC(=O)NC3CCCCC3)ccc2O1 here?
Its relative growth is inactive: 1.03.

With C[C@@H]1CN([C@@H](C)CO)C(=O)c2cc(-c3cccc(C(=O)N(C)C)c3)cnc2O[C@@H]1CN(C)C(=O)Cc1ccccn1 as the compound, how does the relative growth read?
Its relative growth is inactive: 0.978.

Which relative growth does the source give for O=C(C[C@H]1C[C@@H]2c3cc(NS(=O)(=O)c4ccc(F)cc4)ccc3O[C@@H]2[C@@H](CO)O1)NCc1ccc(Oc2ccccc2)cc1 here?
The relative growth was inactive: 1.02.

Which relative growth does the source give for COc1ccc(-c2cnc3c(c2)C(=O)N([C@H](C)CO)C[C@H](C)[C@H](CN(C)S(=O)(=O)c2ccc(F)cc2)O3)cc1 here?
The relative growth was inactive: 0.997.

C[C@@H]1CN([C@@H](C)CO)C(=O)Cc2cc(NC(=O)Nc3ccc(C(F)(F)F)cc3)ccc2O[C@H]1CN(C)C(=O)Nc1ccc2c(c1)OCO2 was tested. Which relative growth did it give?
Its relative growth is inactive: 1.02.

With O=C(C=Cc1ccc(O)cc1)c1ccccc1 as the compound, how does the relative growth read?
Its relative growth is inactive: 0.931.

For C[C@H](CO)N1C[C@H](C)[C@H](CN(C)S(=O)(=O)c2cccs2)Oc2ccc(NC(=O)Nc3cccc4ccccc34)cc2C1=O, which relative growth is on record?
Its relative growth is inactive: 0.985.

C[C@@H]1CN([C@@H](C)CO)C(=O)c2cc(NS(C)(=O)=O)ccc2O[C@@H](C)CCCCO[C@H]1CN(C)C(=O)Nc1ccc(C(F)(F)F)cc1 was tested. Which relative growth did it give?
The relative growth was inactive: 0.999.

For CO[C@H]1CN(C)C(=O)c2cc(NS(=O)(=O)CC(F)(F)F)ccc2OC[C@@H](C)N(Cc2cccnc2)C[C@H]1C, which relative growth is on record?
The relative growth was inactive: 0.997.

For C[C@H](CO)N1C[C@H](C)[C@H](CN(C)C(=O)Nc2cccc3ccccc23)Oc2c(NC(=O)c3ccc(-c4nccs4)cc3)cccc2C1=O, which relative growth is on record?
The relative growth was inactive: 1.

CC(C)CC#Cc1ccc2c(c1)O[C@H](CN(C)C(=O)Cc1cccnc1)[C@@H](C)CN([C@@H](C)CO)S2(=O)=O was tested. Which relative growth did it give?
The relative growth was inactive: 0.99.

How did the relative growth turn out when C[C@H](O)C#Cc1cnc2c(c1)C(=O)N([C@@H](C)CO)C[C@@H](C)[C@@H](CN(C)Cc1cncnc1)O2 was run?
The relative growth was inactive: 0.993.
